The campaign covered roughly 360,000 compounds. About 16,000 (4.4%) were called active. This list was built around the results that the source calls inconclusive (neither active nor inactive); the mix of calls is not that of the screen. The call rests on the fitted dose curve; in most records, active means well fitted inhibition curve with a large enough effect; inconclusive means small, poorly fitted or top-dose-only effect; inactive means no such curve, though single readings can be large or run the other way. A potency beside an inconclusive call is a rough fit, not a confirmed value.
What follows are compounds tested against Bromodomain adjacent to zinc finger domain protein 2B (Homo sapiens) (UniProt Q9UIF8) (assay: qHTS Assay for Inhibitors of BAZ2B). Conditions: AlphaScreen BAZ2B-H3K14Ac peptide displacement; series mostly up to 114 µM.
Chain of UniProt Q9UIF8 (Q9UIF8 whole entry, looked up, the tested form may be a part): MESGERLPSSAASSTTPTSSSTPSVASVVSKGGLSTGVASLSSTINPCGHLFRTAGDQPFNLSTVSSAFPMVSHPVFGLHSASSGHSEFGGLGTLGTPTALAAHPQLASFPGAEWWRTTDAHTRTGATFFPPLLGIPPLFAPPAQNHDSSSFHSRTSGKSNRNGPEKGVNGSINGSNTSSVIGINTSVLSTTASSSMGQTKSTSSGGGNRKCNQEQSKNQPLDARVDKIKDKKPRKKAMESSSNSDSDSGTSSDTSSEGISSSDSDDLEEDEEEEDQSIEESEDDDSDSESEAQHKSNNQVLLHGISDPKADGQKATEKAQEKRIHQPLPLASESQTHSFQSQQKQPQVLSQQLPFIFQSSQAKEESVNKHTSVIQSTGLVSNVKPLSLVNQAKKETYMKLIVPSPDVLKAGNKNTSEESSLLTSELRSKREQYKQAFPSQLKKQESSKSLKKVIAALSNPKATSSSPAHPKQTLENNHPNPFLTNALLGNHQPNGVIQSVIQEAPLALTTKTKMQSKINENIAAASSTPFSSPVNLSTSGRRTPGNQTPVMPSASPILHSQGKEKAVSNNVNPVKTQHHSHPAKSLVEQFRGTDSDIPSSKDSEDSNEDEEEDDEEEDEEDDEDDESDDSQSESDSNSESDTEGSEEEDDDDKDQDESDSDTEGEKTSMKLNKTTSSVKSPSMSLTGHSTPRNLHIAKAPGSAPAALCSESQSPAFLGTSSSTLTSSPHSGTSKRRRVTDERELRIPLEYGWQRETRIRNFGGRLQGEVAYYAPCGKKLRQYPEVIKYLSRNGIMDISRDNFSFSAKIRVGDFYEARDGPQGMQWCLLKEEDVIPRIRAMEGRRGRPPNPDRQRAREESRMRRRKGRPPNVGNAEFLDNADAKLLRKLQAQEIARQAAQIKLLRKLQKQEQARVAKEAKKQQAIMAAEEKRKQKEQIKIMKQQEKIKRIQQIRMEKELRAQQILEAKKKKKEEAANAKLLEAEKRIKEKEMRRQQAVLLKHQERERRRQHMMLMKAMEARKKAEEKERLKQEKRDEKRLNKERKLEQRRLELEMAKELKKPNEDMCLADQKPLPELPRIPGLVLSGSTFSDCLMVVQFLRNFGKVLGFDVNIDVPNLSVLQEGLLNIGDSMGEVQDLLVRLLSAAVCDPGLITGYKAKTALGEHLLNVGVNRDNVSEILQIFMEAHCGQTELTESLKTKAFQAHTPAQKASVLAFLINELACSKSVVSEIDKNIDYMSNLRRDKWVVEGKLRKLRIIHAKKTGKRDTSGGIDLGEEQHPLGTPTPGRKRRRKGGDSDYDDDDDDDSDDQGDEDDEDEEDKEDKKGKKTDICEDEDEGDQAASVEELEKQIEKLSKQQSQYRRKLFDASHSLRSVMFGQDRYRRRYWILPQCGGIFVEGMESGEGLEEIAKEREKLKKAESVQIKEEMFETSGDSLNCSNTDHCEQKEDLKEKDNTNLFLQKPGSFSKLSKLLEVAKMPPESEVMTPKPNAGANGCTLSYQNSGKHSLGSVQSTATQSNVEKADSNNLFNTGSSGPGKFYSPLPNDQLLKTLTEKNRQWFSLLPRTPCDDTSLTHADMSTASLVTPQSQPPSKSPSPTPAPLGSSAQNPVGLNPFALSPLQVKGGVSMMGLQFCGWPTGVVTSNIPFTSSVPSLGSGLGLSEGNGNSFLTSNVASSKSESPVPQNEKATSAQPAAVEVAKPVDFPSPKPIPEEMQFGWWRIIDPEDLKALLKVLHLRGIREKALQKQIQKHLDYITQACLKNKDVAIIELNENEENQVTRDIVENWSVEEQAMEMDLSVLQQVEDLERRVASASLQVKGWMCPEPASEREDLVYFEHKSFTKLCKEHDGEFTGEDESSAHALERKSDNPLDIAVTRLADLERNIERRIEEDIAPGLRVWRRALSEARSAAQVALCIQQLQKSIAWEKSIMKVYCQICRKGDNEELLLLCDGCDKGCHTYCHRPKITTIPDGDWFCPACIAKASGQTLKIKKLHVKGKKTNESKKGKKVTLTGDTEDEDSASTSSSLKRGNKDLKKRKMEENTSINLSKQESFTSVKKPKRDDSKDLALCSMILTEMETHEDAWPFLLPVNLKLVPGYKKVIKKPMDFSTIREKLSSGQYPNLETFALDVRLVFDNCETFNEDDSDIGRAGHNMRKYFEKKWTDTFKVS
Text: BAZ2B (bromodomain adjacent to zinc finger domain, 2B) belongs to a family of ubiquitously expressed bromodomain containing proteins, which biological function has not yet been elucidated. […] The interaction of BAZ2B with ISWI mediated by the BAZ1 motif has recently been described. […] The protocol is based on the AlphaScreen (PerkinElmer) displacement assay developed by NCGC [5], but uses the peptide ligand Biot-H3K14Ac, a high affinity binding partner for BAZ2B, in an AlphaScreen format. Although AlphaScreen has significant advantages with its utility in a variety of epigenetic target assays, the primary screening data provided in this deposition should be used with caution due to the prevalence of screening artifacts. The top compound concentration tested was 110uM in this assay, which increases number of actives and potential artifacts. An AlphaScreen counterscreen is highly recommended to be run against any putative actives to eliminate non-specific artifacts. Alternatively, one can use other AlphaScreen assays in PubChem to filter out promiscuous hits. Eberharter, A. et al. ACF1 improves the effectiveness of nucleosome mobilization by ISWI through PHD-histone contacts. The EMBO journal 23, 4029-4039. 2004. PMID: 15457208 [2] Jones, M.H. et al. A novel family of bromodomain genes. Genomics 63, 40-45. 2000. PMID: 10662543 [3] Yasgar, et al. Compound Management for Quantitative High-Throughput Screening. JALA. 2008 Apr;13(2):79-89. PMID: 18496600 [4] Inglese, et al. Quantitative high-throughput screening: a titration-based approach that efficiently identifies biological activities in large chemical libraries. Proc Natl Acad Sci. 1;103(31):11473-8. 2006. PMID: 16864780 [5] Quinn et al. A chemiluminescence-based method for identification of histone lysine methyltransferase inhibitors. Mol Biosyst 6(5): 782-8. 2010. PMID: 20567762 [6] Baell,Holloway. New substructure filters for removal of pan assay interference compounds (PAINS) from screening libraries and for their exclusion in bioassays. J Med Chem. 53(7):2719-40. 2010. PMID: 20131845 NIH Molecular Libraries Probe Production Network [MLPCN] NIH Chemical Genomics Center [NCGC] Structural Genomics Consortium (SGC) NIH Grant: 5U54 MH084681-02
To each well of a 1,536w plate, 2ul of BAZ2B protein (final 50nM) and 1ul biotinylated histone peptide acetylated at Lys14 [b-H3(5-23)K14Ac] (final 50nM) were added in 1x PBS buffer, pH 7.4, containing 0.01% Tween-20, using a nanoliter dispenser. Formation of a protein-peptide complex proceeded at room temperature for 30 min. A Kalypsys pin-tool was employed to transfer 23 nL of library compound solution in DMSO to each well. Following a 30 min incubation of the protein-peptide complex with compounds at room temperature, a mixture of 40 ug/mL each streptavidin-coated donor and nickel chelate acceptor AlphaScreen beads (final 10 ug/mL) were added in a 1ul dispense for a final volume of 4ul. A brief centrifugation followed (1000rpm, 1 min) and were then incubated protected from the light for 20 min at room temperature. Plates were read on an EnVision multilabel plate reader using the 1,536 plate HTS AlphaScreen aperture (excitation time 80 ms, measurement time 240 ms).
Further: nearly all actives have a fitted effect of over 60% in size.
Potency means the concentration at half of the fitted maximal effect; tags describe the fitted curve by direction and shape.

| SMILES | Potency |
| --- | --- |
| Cn1c(CCN2CCN(c3ccccn3)CC2)nc2cc(NC(=O)COc3ccc(Cl)cc3)ccc21 | inconclusive: 17.8 µM [inhibitor, full curve] |
| CCn1ccnc1CNCc1ccc(OCC(O)CN(C)Cc2ccccc2)cc1 (stereo not given) | inconclusive: 79.4 µM [inhibitor, single point] |
| Cc1ccc(C(=O)Nc2ccccc2C(=O)NC(Cc2c[nH]c3ccccc23)C(=O)O)cc1 (stereo not given) | active: 79.4 µM |
| O=C(CSc1nncn2c1cc1sccc12)Nc1ccccc1C(F)(F)F | inconclusive: 79.4 µM [inhibitor, single point] |
| S=C(Nc1ccc(N2CCOCC2)cc1)Nc1ccc2nc(-c3ccco3)c(-c3ccco3)nc2c1 | inconclusive: 79.4 µM [inhibitor, single point] |
| Cc1c(NC(=O)c2cc(-c3cccc(Cl)c3)on2)c(=O)n(-c2ccccc2)n1C | inactive |
| COc1ccc2nc3sc(C(=O)Nc4cc(Cl)c(OC)cc4OC)cc3cc2c1 | inconclusive: 70.8 µM [inhibitor, single point] |
| Oc1c(N=NC(=S)Nc2ccccc2F)c2ccccc2n1Cc1ccccc1F | inactive |
| CC(=O)Oc1ccc(N(C(C)=O)S(=O)(=O)c2cc([N+](=O)[O-])ccc2C)cc1 | inconclusive: 79.4 µM [inhibitor, single point] |
| N#C/C(=C\c1ccc(N2CCOCC2)o1)C(=O)Nc1ccc(O)cc1 | inconclusive: 50.1 µM [inhibitor, partial curve] |
| O=c1cc(CO)oc(C(Nc2ccccn2)c2ccsc2)c1O (stereo not given) | inconclusive: 56.2 µM [inhibitor, partial curve] |
| COc1ccccc1C1CCN(Cc2cccc([N+](=O)[O-])c2)CC1 | inconclusive: 70.8 µM [inhibitor, partial curve] |
| COC(=O)CC1=NN(c2nc3ccccc3s2)C(=O)/C1=C/N(C)C | inactive |
| Cc1cccn2c(=O)c(C=O)c(N3CCN(c4ccccc4)CC3)nc12 | inconclusive: 50.1 µM [inhibitor, partial curve] |
| N#Cc1nc(-c2cccs2)oc1N1CCN(c2ccccc2)CC1 | inconclusive: 5.62 µM [inhibitor, full curve] |
| N=C(N)N=Nc1c(O)[nH]c2ccc(Br)cc12 | inconclusive: 44.7 µM [inhibitor, partial curve] |
| CCN(CC)c1nc2c(S(=O)(=O)c3cccc(Cl)c3)nnn2c2ccsc12 | inactive |
| COC(=O)CCC(NC(=O)c1cc(-c2ccc3c(c2)OCCO3)oc1C)C(=O)OC (stereo not given) | inconclusive: 89.1 µM [inhibitor, single point] |
| COc1ccc(CCNC(=O)c2cc(C(=O)c3cc(C)ccc3O)cn(CCc3ccc(OC)cc3)c2=O)cc1 | inconclusive: 89.1 µM [inhibitor, single point] |
| Cc1cccc(-n2c(=S)[nH]c3c(oc4ccccc43)c2=O)c1 | inactive |
| CCOC(=O)C1=C(O)/C(=C\c2ccc(CNC(=O)C(=O)Nc3ccccc3)o2)N=C1C | active: 56.2 µM |
| COc1ccc(-c2nc(CS(=O)CC(=O)NC3CCCCCC3)c(C)o2)cc1 (stereo not given) | inconclusive: 79.4 µM [inhibitor, single point] |

| SMILES | Potency |
| --- | --- |
| CCN1CCN(c2nc3c(C)cccn3c(=O)c2/C=C(\C#N)S(=O)(=O)c2ccc(C)cc2)CC1 | inconclusive: 44.7 µM [inhibitor, partial curve] |
| O=C1c2ccccc2C(=O)N1CCCCN(C(=O)c1cccc([N+](=O)[O-])c1)c1ccc(Cl)cc1 | inconclusive: 89.1 µM [inhibitor, single point] |
| COc1ccc(C(=O)c2c(N)sc3c2CCN(C(=O)OC(C)(C)C)C3)cc1 | inconclusive: 70.8 µM [inhibitor, partial curve, poor fit] |
| COc1ccc(F)cc1C(=O)C1CCCN(C(=O)c2cccc(N(C)C)c2)C1 (stereo not given) | inconclusive: 50.1 µM [inhibitor, partial curve] |
| CCN1/C(=C/c2ccc3ccccc3[n+]2CC)C=Cc2ccccc21 | inconclusive: 70.8 µM [inhibitor, single point] |
| COc1ccc(C(=O)N2CCN(C(=O)Cc3ccccc3)CC2)cc1OC | inactive |
| O=S(=O)(c1ccccc1)c1nc(-c2cccs2)oc1NCCCn1ccnc1 | inconclusive: 50.1 µM [inhibitor, partial curve] |
| CN(Cc1c(C(=O)N/N=C/c2c(F)cccc2Cl)nnn1-c1nonc1N)c1ccccc1 | inconclusive: 70.8 µM [inhibitor, single point] |
| CC(C)CCC[C@@H](C)[C@H]1CC[C@H]2[C@@H]3C(=O)C=C4C[C@@H](O)CC[C@]4(C)[C@H]3CC[C@]12C | inactive |
| Cc1cccc(NC(c2ccccc2C)c2ccc3ccc(C)nc3c2O)n1 (stereo not given) | active: 22.4 µM |
| COc1cc(OC)cc(C(=O)N2CCN(C(=O)c3cccnc3)CC2)c1 | inconclusive: 89.1 µM [inhibitor, single point] |
| CCN1C(c2ccccc2)=C(c2ccccc2)S/C1=C/C=C1\SC(=S)N(C)C1=O | active: 2.51 µM |
| CCOC(=O)C1(O)CSc2nc3sc(C(=O)O)c(C)c3c(=O)n21 (stereo not given) | inconclusive: 89.1 µM [inhibitor, single point] |
| Cc1nnc(SCC2=C(C(=O)O)N3C(=O)C(NC(=O)Cn4nc(C)c(Cl)c4C)C3SC2)s1 (stereo not given) | inconclusive: 79.4 µM [inhibitor, single point] |
| O=C1CC(NS(=O)(=O)c2cc(F)ccc2F)CN1c1ccc2c(c1)OCCO2 (stereo not given) | inactive |
| CCNC(=O)Nc1cc(S(=O)(=O)Nc2ccc(OC)cc2)ccc1N1CCOCC1 | inactive |
| Cc1oc(-c2cc(F)cc(F)c2)nc1CN1CCSCC1 | inconclusive: 70.8 µM [inhibitor, single point] |
| S=C(Nc1cccc(Cl)c1Cl)Nn1cnnc1 | inconclusive: 89.1 µM [inhibitor, single point] |
| CC(C)n1c(/N=C/c2c[nH]c3ccccc23)nc2ccccc21 | inconclusive: 79.4 µM [inhibitor, single point] |
| CCOC(=O)c1cc2c(ccn2C)n1CC(=O)N1C(C)CCCC1C (stereo not given) | inconclusive: 56.2 µM [inhibitor, partial curve] |
| CCOc1ccc(CCNC(=O)c2nnn(CC(=O)Nc3ccc(OC)c(OC)c3)c2N)cc1OCC | inconclusive: 1.78 µM [inhibitor, full curve, poor fit] |
| Cc1ccc(CN(C)S(=O)(=O)c2c(C)noc2/C=C/N(C)C)cc1 | inconclusive: 50.1 µM [inhibitor, partial curve] |

| SMILES | Potency |
| --- | --- |
| CCN(c1ccccc1)S(=O)(=O)c1ccc(Oc2ccc(-n3ccnc3)cc2)nc1 | inconclusive: 79.4 µM [inhibitor, single point] |
| Cc1nc(CCN2C(=O)c3ccccc3C2=O)n[nH]1 | inconclusive: 4.47 µM [inhibitor, single point] |
| CC(C)Cn1c(C23CC4CC(CC(C4)C2)C3)n[nH]c1=S | inconclusive: 50.1 µM [inhibitor, partial curve] |
| COc1cc2c(cc1OC)C(NNC(=O)c1ccc(Br)o1)=NC(C)(C)C2 | inactive |
| COc1ccc(OC)c(-c2nc(C(=O)NC3CCN(Cc4ccccc4)CC3)cc3c2[nH]c2ccccc23)c1 | inconclusive: 35.5 µM [inhibitor, partial curve] |
| CCN1CCN(c2ccc(S(=O)(=O)N3CCCCC3)cc2NC(=O)COc2ccc(Cl)c(C)c2)CC1 | inconclusive: 35.5 µM [inhibitor, partial curve] |
| CCn1c(C(=O)N2CCC(C(=O)NCCCSC3CCCCC3)CC2)cc2sccc21 | inconclusive: 39.8 µM [inhibitor, partial curve] |
| C(=N\N(Cc1ccccc1)c1ccccc1)/c1cccnc1 | inconclusive: 79.4 µM [inhibitor, partial curve, poor fit] |
| Cc1c(OCc2ccc(C(=O)O)cc2)ccc2c(-c3ccccc3)cc(=O)oc12 | inactive |
| CC(C)Cn1cnc2c(c(-c3ccccc3)c(-c3ccccc3)n2Cc2ccco2)c1=N | inconclusive: 56.2 µM [inhibitor, partial curve] |
| C/C(=N\N=C(c1ccccc1)c1ccccc1)c1cccs1 | inconclusive: 79.4 µM [inhibitor, single point] |
| Cc1ccn2c(=O)nc(SCC(=O)NCc3ccc4c(c3)OCO4)nc2c1 | active: 56.2 µM |
| Cc1nc(C)c(-c2ccc(SCc3ccc([N+](=O)[O-])cc3)nn2)s1 | inconclusive: 79.4 µM [inhibitor, partial curve] |
| COC(=O)c1ccc(N2CCN(c3ccccc3)CC2)nc1 | inconclusive: 89.1 µM [inhibitor, single point] |
| Cc1ccc(C(=O)Oc2c(S(=O)(=O)c3ccccc3)c(C)nn2-c2ccccc2)cc1 | inconclusive: 79.4 µM [inhibitor, single point] |
| CC(/C=N/N1C(=O)CSC1=S)=C\c1ccccc1 | inconclusive: 44.7 µM [inhibitor, partial curve] |
| COc1ccccc1OCCn1c(=O)n(C)c2ccccc21 | inactive |
| Cc1ccc2c(c1)C(=O)C(=O)N2CCCOc1ccccc1 | active: 50.1 µM |
| COc1ccc2cc3cc(C(=O)N4CCN(Cc5ccc6c(c5)OCO6)CC4)oc3nc2c1 | inconclusive: 79.4 µM [inhibitor, single point] |
| O=C(NCC1CCCCC1)c1cccc([N+](=O)[O-])c1 | inconclusive: 89.1 µM [inhibitor, single point] |
| C=CCn1c(N/N=C/c2ccc(O)cc2)nc2ccccc2c1=O | inactive |
